In experiment [1] the target is T1, GST-LRRC4-D fusion protein (D domain of LRRC4, residues 499-513) (human) (UniProt Q9HBW1).
T1 sequence: RVPKQVAVPATDTTD
The experiment is described as follows: pull-down; GST fusion (D domain or CD domain) from bacterial lysate on glutathione-Sepharose 4B beads at 4 °C, washed, then incubated with bacterial cell lysates containing ERK1/2 or LRRC4; buffer 20 mmol/L Tris-Cl, 150 mmol/L NaCl, 2 mmol/L EDTA, 0.5% NP40, pH 7.5; only the target purified.

Amino acid sequences for entries named in this document (tags omitted).
UniProt P27361: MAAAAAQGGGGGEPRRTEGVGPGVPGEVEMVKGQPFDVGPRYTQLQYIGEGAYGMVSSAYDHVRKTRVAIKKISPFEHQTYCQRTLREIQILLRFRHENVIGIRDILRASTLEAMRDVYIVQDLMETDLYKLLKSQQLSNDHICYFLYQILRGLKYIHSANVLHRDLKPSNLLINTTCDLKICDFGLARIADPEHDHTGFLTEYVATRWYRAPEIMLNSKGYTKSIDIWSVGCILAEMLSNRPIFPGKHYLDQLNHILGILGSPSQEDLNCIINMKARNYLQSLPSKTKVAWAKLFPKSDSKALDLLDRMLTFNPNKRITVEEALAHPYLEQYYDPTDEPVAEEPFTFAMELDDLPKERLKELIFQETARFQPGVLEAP
UniProt P28482: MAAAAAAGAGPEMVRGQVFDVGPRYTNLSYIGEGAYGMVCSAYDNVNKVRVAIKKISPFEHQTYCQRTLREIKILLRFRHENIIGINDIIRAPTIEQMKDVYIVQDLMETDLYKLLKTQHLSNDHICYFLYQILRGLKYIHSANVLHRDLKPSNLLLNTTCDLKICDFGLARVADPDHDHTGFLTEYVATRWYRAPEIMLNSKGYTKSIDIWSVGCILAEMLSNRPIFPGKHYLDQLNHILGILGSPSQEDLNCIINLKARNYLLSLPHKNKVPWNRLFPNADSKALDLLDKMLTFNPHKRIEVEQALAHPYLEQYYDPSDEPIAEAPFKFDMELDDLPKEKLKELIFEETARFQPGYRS

Experiment [2] deals with T2, Leucine-rich repeat containing 4 (LRRC4), full-length, expressed from pcDNA3.1(+)-LRRC4 (human) (UniProt Q9HBW1).
T2 sequence: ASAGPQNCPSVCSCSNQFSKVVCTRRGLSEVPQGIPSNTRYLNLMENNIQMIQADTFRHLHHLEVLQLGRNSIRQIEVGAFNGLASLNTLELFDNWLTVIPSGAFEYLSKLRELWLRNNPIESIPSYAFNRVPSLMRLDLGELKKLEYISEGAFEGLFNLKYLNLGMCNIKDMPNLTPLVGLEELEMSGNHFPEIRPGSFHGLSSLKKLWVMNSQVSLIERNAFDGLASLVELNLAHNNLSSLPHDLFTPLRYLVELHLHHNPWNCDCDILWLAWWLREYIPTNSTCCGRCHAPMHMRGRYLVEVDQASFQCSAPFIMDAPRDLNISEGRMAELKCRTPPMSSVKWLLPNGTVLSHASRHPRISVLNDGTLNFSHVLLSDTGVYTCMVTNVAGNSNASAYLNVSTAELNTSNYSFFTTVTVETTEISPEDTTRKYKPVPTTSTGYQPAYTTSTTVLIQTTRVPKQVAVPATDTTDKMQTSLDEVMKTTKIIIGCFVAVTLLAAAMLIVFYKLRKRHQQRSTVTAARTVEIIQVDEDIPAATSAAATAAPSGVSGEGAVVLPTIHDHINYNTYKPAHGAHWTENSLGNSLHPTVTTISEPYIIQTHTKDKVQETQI
The experiment is described as follows: co-IP; HEK293 cells transfected with LRRC4 expression vector; lysates in RIPA buffer, antibody overnight at 4 °C, protein A or G Sepharose beads, washed with RIPA buffer containing 150 mM NaCl; western blot.

The target of experiment [3] is ERK1, endogenous in U251 cells (human (endogenous in U251)) (UniProt P27361). The experiment is described as follows: co-IP; U251 cells transfected with GFP or GFP-LRRC4 (different amounts); MEK1/2 with ERK1/2 in the presence of LRRC4.
Experiment [4] addresses ERK2, endogenous in U251 cells (human (endogenous in U251)) (UniProt P28482). The description is as above.
For experiment [5], the target named is ERK1, endogenous in HEK293 cells (human (endogenous in HEK293)) (UniProt P27361). The experiment is described as follows: co-IP; HEK293 cells transfected with LRRC4 expression vector; lysates in RIPA buffer, antibody overnight at 4 °C, protein A or G Sepharose beads, washed with RIPA buffer containing 150 mM NaCl; western blot.
The target in experiment [6] is ERK2, endogenous in HEK293 cells (human (endogenous in HEK293)) (UniProt P28482). The description is as above.
Experiment [7] deals with Purified ERK1 (of purified ERK1/2) (UniProt P27361). As to the kind of experiment: co-IP; purified MEK1/2 and ERK1/2 mixed in vitro with increasing concentration of purified LRRC4; both purified.
The target of experiment [8] is Purified ERK2 (of purified ERK1/2) (UniProt P28482). The experiment is described as above.

Results are given in words; binding and its absence hold for the method and conditions named. For some assays here: In cells and extracts the contact can be indirect. Some binding calls cover weakened binding; strength is not graded here. For some assays here: Where a sequence is shown, tags or fusion partners need not be part of it.

Regarding “Wild-type ERK1, in bacterial cell lysate (from UniProt P27361 1-379)”, in experiment [1], the binding result was “binds”.
Consider “Wild-type ERK2, in bacterial cell lysate (from UniProt P28482 1-360)”, for which the binding result in experiment [1] was “binds”.
On to “ERK1, endogenous in HEK293 cells (from UniProt P27361 1-379)”, for which, in experiment [2], the binding entry was “binds”.
Take “ERK2, endogenous in HEK293 cells (from UniProt P28482 1-360)”: the binding entry in experiment [2] is reported as “binds”.

B1: GFP-LRRC4, expressed in U251 cells (protein, UniProt Q9HBW1 39-653)
chain: ASAGPQNCPSVCSCSNQFSKVVCTRRGLSEVPQGIPSNTRYLNLMENNIQMIQADTFRHLHHLEVLQLGRNSIRQIEVGAFNGLASLNTLELFDNWLTVIPSGAFEYLSKLRELWLRNNPIESIPSYAFNRVPSLMRLDLGELKKLEYISEGAFEGLFNLKYLNLGMCNIKDMPNLTPLVGLEELEMSGNHFPEIRPGSFHGLSSLKKLWVMNSQVSLIERNAFDGLASLVELNLAHNNLSSLPHDLFTPLRYLVELHLHHNPWNCDCDILWLAWWLREYIPTNSTCCGRCHAPMHMRGRYLVEVDQASFQCSAPFIMDAPRDLNISEGRMAELKCRTPPMSSVKWLLPNGTVLSHASRHPRISVLNDGTLNFSHVLLSDTGVYTCMVTNVAGNSNASAYLNVSTAELNTSNYSFFTTVTVETTEISPEDTTRKYKPVPTTSTGYQPAYTTSTTVLIQTTRVPKQVAVPATDTTDKMQTSLDEVMKTTKIIIGCFVAVTLLAAAMLIVFYKLRKRHQQRSTVTAARTVEIIQVDEDIPAATSAAATAAPSGVSGEGAVVLPTIHDHINYNTYKPAHGAHWTENSLGNSLHPTVTTISEPYIIQTHTKDKVQETQI
For B1, the binding entry in experiment [3] and in experiment [4] was “binds” throughout.

B2: Leucine-rich repeat containing 4 (LRRC4), full-length, expressed from pcDNA3.1(+)-LRRC4 (protein, UniProt Q9HBW1 39-653)
chain: ASAGPQNCPSVCSCSNQFSKVVCTRRGLSEVPQGIPSNTRYLNLMENNIQMIQADTFRHLHHLEVLQLGRNSIRQIEVGAFNGLASLNTLELFDNWLTVIPSGAFEYLSKLRELWLRNNPIESIPSYAFNRVPSLMRLDLGELKKLEYISEGAFEGLFNLKYLNLGMCNIKDMPNLTPLVGLEELEMSGNHFPEIRPGSFHGLSSLKKLWVMNSQVSLIERNAFDGLASLVELNLAHNNLSSLPHDLFTPLRYLVELHLHHNPWNCDCDILWLAWWLREYIPTNSTCCGRCHAPMHMRGRYLVEVDQASFQCSAPFIMDAPRDLNISEGRMAELKCRTPPMSSVKWLLPNGTVLSHASRHPRISVLNDGTLNFSHVLLSDTGVYTCMVTNVAGNSNASAYLNVSTAELNTSNYSFFTTVTVETTEISPEDTTRKYKPVPTTSTGYQPAYTTSTTVLIQTTRVPKQVAVPATDTTDKMQTSLDEVMKTTKIIIGCFVAVTLLAAAMLIVFYKLRKRHQQRSTVTAARTVEIIQVDEDIPAATSAAATAAPSGVSGEGAVVLPTIHDHINYNTYKPAHGAHWTENSLGNSLHPTVTTISEPYIIQTHTKDKVQETQI
With B2, the binding entry in experiment [5] and in experiment [6] was “binds” in each case.

B3: Purified LRRC4 protein (protein, UniProt Q9HBW1 39-653)
chain: ASAGPQNCPSVCSCSNQFSKVVCTRRGLSEVPQGIPSNTRYLNLMENNIQMIQADTFRHLHHLEVLQLGRNSIRQIEVGAFNGLASLNTLELFDNWLTVIPSGAFEYLSKLRELWLRNNPIESIPSYAFNRVPSLMRLDLGELKKLEYISEGAFEGLFNLKYLNLGMCNIKDMPNLTPLVGLEELEMSGNHFPEIRPGSFHGLSSLKKLWVMNSQVSLIERNAFDGLASLVELNLAHNNLSSLPHDLFTPLRYLVELHLHHNPWNCDCDILWLAWWLREYIPTNSTCCGRCHAPMHMRGRYLVEVDQASFQCSAPFIMDAPRDLNISEGRMAELKCRTPPMSSVKWLLPNGTVLSHASRHPRISVLNDGTLNFSHVLLSDTGVYTCMVTNVAGNSNASAYLNVSTAELNTSNYSFFTTVTVETTEISPEDTTRKYKPVPTTSTGYQPAYTTSTTVLIQTTRVPKQVAVPATDTTDKMQTSLDEVMKTTKIIIGCFVAVTLLAAAMLIVFYKLRKRHQQRSTVTAARTVEIIQVDEDIPAATSAAATAAPSGVSGEGAVVLPTIHDHINYNTYKPAHGAHWTENSLGNSLHPTVTTISEPYIIQTHTKDKVQETQI
On to B3, for which the binding entry in experiment [7] and in experiment [8] was “binds” each time.

B4: LRRC4-ΔD mutant (deletion of the D domain in the full-length LRRC4 protein) (protein, UniProt Q9HBW1)
chain: ASAGPQNCPSVCSCSNQFSKVVCTRRGLSEVPQGIPSNTRYLNLMENNIQMIQADTFRHLHHLEVLQLGRNSIRQIEVGAFNGLASLNTLELFDNWLTVIPSGAFEYLSKLRELWLRNNPIESIPSYAFNRVPSLMRLDLGELKKLEYISEGAFEGLFNLKYLNLGMCNIKDMPNLTPLVGLEELEMSGNHFPEIRPGSFHGLSSLKKLWVMNSQVSLIERNAFDGLASLVELNLAHNNLSSLPHDLFTPLRYLVELHLHHNPWNCDCDILWLAWWLREYIPTNSTCCGRCHAPMHMRGRYLVEVDQASFQCSAPFIMDAPRDLNISEGRMAELKCRTPPMSSVKWLLPNGTVLSHASRHPRISVLNDGTLNFSHVLLSDTGVYTCMVTNVAGNSNASAYLNVSTAELNTSNYSFFTTVTVETTEISPEDTTRKYKPVPTTSTGYQPAYTTSTTVLIQTTKMQTSLDEVMKTTKIIIGCFVAVTLLAAAMLIVFYKLRKRHQQRSTVTAARTVEIIQVDEDIPAATSAAATAAPSGVSGEGAVVLPTIHDHINYNTYKPAHGAHWTENSLGNSLHPTVTTISEPYIIQTHTKDKVQETQI
For the molecule B4, the binding entry in experiment [5] is on record as “no binding”.

These data come from article PMC5123285.
